The whole screen tested about 310,000 compounds, of which about 14,000 (4.5%) showed an effect of 50% or more. The effect is printed as a negative number. The list shows a part of the results.
The compounds below were run against human ether-à-go-go-related gene (hERG) potassium channel (human, UniProt Q12809) (assay: primary screen, population patch clamp on CHO cells stably expressing hERG).
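Also: peak tail current of the secondary pulse compared with the same well before compound.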

Chain of human ether-à-go-go-related gene (hERG) potassium channel (Q12809 whole entry, looked up): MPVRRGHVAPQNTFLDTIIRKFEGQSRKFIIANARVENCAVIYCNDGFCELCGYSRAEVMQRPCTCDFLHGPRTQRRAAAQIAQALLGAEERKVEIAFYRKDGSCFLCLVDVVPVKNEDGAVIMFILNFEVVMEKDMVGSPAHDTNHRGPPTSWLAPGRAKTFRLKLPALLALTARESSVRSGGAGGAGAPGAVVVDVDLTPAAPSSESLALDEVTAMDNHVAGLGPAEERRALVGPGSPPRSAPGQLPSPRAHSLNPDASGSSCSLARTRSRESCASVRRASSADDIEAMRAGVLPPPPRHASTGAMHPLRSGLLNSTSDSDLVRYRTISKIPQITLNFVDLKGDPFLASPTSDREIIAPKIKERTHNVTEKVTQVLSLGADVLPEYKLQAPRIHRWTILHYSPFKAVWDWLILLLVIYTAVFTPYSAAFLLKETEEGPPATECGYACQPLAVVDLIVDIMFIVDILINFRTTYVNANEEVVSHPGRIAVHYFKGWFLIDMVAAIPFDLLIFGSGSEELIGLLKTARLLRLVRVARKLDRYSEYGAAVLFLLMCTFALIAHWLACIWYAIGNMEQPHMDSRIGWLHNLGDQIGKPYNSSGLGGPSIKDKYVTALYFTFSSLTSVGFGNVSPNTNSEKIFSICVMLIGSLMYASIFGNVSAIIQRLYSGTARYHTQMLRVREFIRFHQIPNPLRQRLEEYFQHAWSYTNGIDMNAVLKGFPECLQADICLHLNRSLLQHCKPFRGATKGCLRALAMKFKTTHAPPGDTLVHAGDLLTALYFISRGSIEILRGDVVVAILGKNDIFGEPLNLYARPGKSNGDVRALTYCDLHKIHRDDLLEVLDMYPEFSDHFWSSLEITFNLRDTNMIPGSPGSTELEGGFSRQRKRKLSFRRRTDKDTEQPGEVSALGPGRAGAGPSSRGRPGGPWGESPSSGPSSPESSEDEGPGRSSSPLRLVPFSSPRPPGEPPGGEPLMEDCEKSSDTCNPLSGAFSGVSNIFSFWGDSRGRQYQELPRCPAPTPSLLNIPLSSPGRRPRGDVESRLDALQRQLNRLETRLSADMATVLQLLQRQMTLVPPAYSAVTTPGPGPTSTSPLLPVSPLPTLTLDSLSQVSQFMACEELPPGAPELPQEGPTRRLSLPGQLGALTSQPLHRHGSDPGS

Row | Structure (SMILES) | hERG current change (%, negative = inhibition) at 10uM [%]
1 | O=C(c1ccccc1Cl)N(Cc1ccccc1F)N1C(=O)CCCC1=O | 11.1
2 | CCN(CC(=O)NCc1cccs1)S(=O)(=O)c1ccc([N+](=O)[O-])cc1 | -68.2
3 | CC(=O)N1CCN(c2ccc(Oc3ncnc4sccc34)cc2)CC1 | -0.203
4 | CC(=O)c1cccc(NC(=O)C(C)N2CCc3ccccc3C2)c1 (stereo not shown) | 4.43
5 | O=C(c1ccc(-c2nnc(Nc3cccc(Cl)c3)c3ccccc23)cc1)N1C[C@H]2C[C@H](C1)c1cccc(=O)n1C2 | -7.75
6 | CCOC(=O)NC(=O)COC(=O)CCCc1nc2ccccc2s1 | -4.56
7 | COC(=O)CCC(=O)N(C)CC1CCCN(CCc2cccc(C(F)(F)F)c2)C1 (stereo not shown) | -61.9
8 | Cc1cc(C(C)(C)C)cc(C)c1C(=O)O | 0.0126
9 | CCCc1nnc(NS(=O)(=O)c2ccccc2)s1 | 14.5
10 | COC(=O)Nc1ccc(S(=O)(=O)n2cnc3ccccc32)cc1 | -4.93
11 | Cc1cc(C(=O)N/N=C/c2cccc3ccccc23)c(C)o1 | 7.15
12 | O=C(NC1CC2CCC1C2)C1COc2ccccc2O1 (stereo not shown) | -8.46
13 | O=C(N/N=C/c1cccnc1)c1ccco1 | 13
14 | O=S(=O)(NC1CCCC1)c1ccccc1Cl | -17
15 | Cc1ccc(S(=O)(=O)NCC(=O)N(CC(=O)NCc2ccco2)Cc2ccccc2)cc1 | -10.2
16 | CCOc1ccc(-n2ccnc2SCC(=O)N2CCCc3ccccc32)cc1 | -13.7
17 | Cc1ccc(NC(=S)N2CCC(C(N)=O)(N3CCCCC3)CC2)c(C)c1 | 4.19
18 | O=C(Nc1cc(S(=O)(=O)N2CCOCC2)ccc1N1CCCC1)c1cnccn1 | -4.43
19 | COCCn1c(-c2ccc(-c3ccc([N+](=O)[O-])cc3Br)o2)nc2c1c(=O)[nH]c(=O)n2CC(C)C | -4.7
20 | CC(N=C1NS(=O)(=O)c2ccccc21)C(=O)NCc1ccc2c(c1)OCO2 (stereo not shown) | 8.21
21 | O=C(NC1CCc2ccccc21)c1cc(COc2ccc(F)cc2Cl)on1 (stereo not shown) | 8.94
22 | Cc1cc(C)nc(SCC(=O)N/N=C/c2cccc([N+](=O)[O-])c2)n1 | -0.792

Row | Structure (SMILES) | hERG current change (%, negative = inhibition) at 10uM [%]
23 | CCCCCOc1ccc(CSC(=N)N)cc1[N+](=O)[O-].Cl | -56.7
24 | COc1ccc(-c2c(-c3ccc(OC)cc3O)nc(C)nc2C(F)(F)F)cc1 | -6.07
25 | Cn1c(C(=O)Nc2ccc3c(c2)OCO3)cc2sccc21 | -2.75
26 | COC(=O)Cc1ccc(NC(=S)NCCSc2ccc(Cl)cc2)cc1 | -8.33
27 | COc1ccc(OC)c(NC(=O)Cn2c(C)nc3ccccc3c2=O)c1 | 6.9
28 | Cn1c2[n+](c3ccc(Cl)cc3c1=O)Cc1ccccc1-2.[Cl-] | -12.8
29 | COCCNC(=O)c1c(N)n(/N=C/c2ccc(F)cc2)c2nc3ccccc3nc12 | -0.595
30 | O=C(CS(=O)CC(=O)NC12CC3CC(CC(C3)C1)C2)Nc1ccc(F)cc1 (stereo not shown) | -6.85
31 | COc1cccc(-n2c(Cc3cc(=O)[nH]c(=O)[nH]3)nnc2SCC(=O)N2CCCCC2)c1 | 8.75
32 | COc1ccccc1C(=O)NC(CCSC)C(=O)OCC(=O)N1CCCC1=O (stereo not shown) | 8.9
33 | CCC1(CC)C(=O)C2=C3C1[C@H](C(=O)OC)C=C(C(=O)OC)C[C@H]3n1c(=O)n(-c3ccccc3)c(=O)n1[C@H]2C (stereo partly shown) | -2.64
34 | CC(=O)c1ccc(S(=O)(=O)N2CCN(C(C)=O)CC2)cc1 | 11
35 | O=C(CCNC(=O)c1ccccc1Cl)Nc1cccc(S(=O)(=O)N2CCCC2)c1 | -1.76
36 | COc1cccc(CNC(=O)C2CCCN(S(=O)(=O)c3c(C)n[nH]c3C)C2)c1 (stereo not shown) | -4.5
37 | O=C(O)C(=O)O.c1ccc(-c2cnc(SCCN3CCOCC3)n2CC2CCCO2)cc1 (stereo not shown) | -0.604
38 | COc1ccc(N2CCN(CCc3ccncc3)CC2)cc1 | -38
39 | O=C(COC(=O)CCc1nc2ccccc2c(=O)[nH]1)NC(c1ccccc1)c1ccccc1 | 5.31
40 | COc1cccc(Nc2nc3ccc(C(=O)c4ccccc4)cc3n3cnnc23)c1 | -1.42
41 | COc1ccccc1CNC(=O)CSCc1cnn(-c2ccccc2)c1-n1cccc1 | -17
42 | O=C(CCc1nc(-c2ccccc2)c(-c2ccccc2)o1)OCc1ccc(Cl)cc1 | 17.4
43 | CC(C)(C)C(=O)c1cn(Cc2ccccc2)c2ccccc12 | -4.12
